This is one part of the list. Antibody binding of pooled human sera (four to six donors per pool; dilution not stated) to peptides of the Trypanosoma cruzi antigen TSSA on microarrays. Quantile-normalised fluorescence in arbitrary units, mean of duplicate arrays; higher = more binding. No active / inactive call. The uninfected pools are read here as the healthy donors of the same country. The strongest signals lie near the top of the scale (about 60,000).
system: pooled sera of uninfected people, Colombia; experiment: antibody binding signal (normalised fluorescence) (arbitrary fluorescence units); higher = stronger serum antibody binding to peptide
Method: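 Microarray of 15-residue peptides over residues 30-55 of Trypanosoma cruzi TSSAII, each with 1 to 10 substitutions at naturally variable positions, probed with one serum pool per country.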

| Sequence | antibody binding signal |
| --- | --- |
| SSTPPSGTEKKPATG | 219 |
| GKDKKTATGETPSQS | 92.6 |
| GKENKTAAGGAPSQP | 124 |
| SGTDKKAAAGEAPSQ | 209 |
| PPSGKENKPATGGAP | 537 |
| TSSTPPSGTEKKTAT | 118 |
| KKTATGGAPSPPGAS | 167 |
| STPPSGTDKKTATGG | 205 |
| ENKTAAGEAPSPPGA | 168 |
| STPPSGKDKKTAAGG | 125 |
| PPSGKDNKAAAGGTP | 286 |
| KEKKTATGETPSPPG | 86.8 |
| PPSGTDKKAAAGETP | 690 |
| STPPSGKEKKPAAGG | 319 |
| GKDNKPAAGGTPSQS | 193 |
| SSTPPSGTEKKPAAG | 224 |
| SSTPPSGKENKPATG | 711 |
| KENKPATGGAPSPSG | 110 |
| GTDNKPATGEAPSQS | 175 |
| PPSGTENKTAAGETP | 385 |

| Sequence | antibody binding signal |
| --- | --- |
| SGTDNKPATGGTPSP | 778 |
| PSGKEKKTATGGTPS | 157 |
| PSGKDKKTAAGGTPS | 131 |
| KPATGEAPSPPGASS | 163 |
| EKKTAAGGAPSPPGA | 323 |
| GTENKAAAGETPSQP | 211 |
| KDNKPAAGEAPSQPG | 190 |
| KKPATGGAPSPPGAS | 175 |
| ENKTAAGGAPSQSGA | 180 |
| TPPSGKDKKPATGGT | 276 |
| GKDKKPAAGGAPSQS | 97 |
| KDKKAAAGETPSQSG | 136 |
| DKKTATGEAPSPSGA | 94.2 |
| DNKAAAGGAPSPSGA | 292 |
| KEKKAAAGETPSPSG | 85 |
| PPSGTENKPATGGTP | 878 |
| ENKAAAGGAPSQSGA | 239 |
| KDKKAATGEAPSQSG | 133 |
| EKKPATGEAPSPPGA | 260 |
| SGKDKKTAAGETPSP | 359 |

— the supplement of paper PMC10441789
